{"source": "paper PMC9669179", "about": "(Epilepsia, 2022)", "experiment": "Brain pharmacokinetics in rats", "settings": "rat, high dose i.p.: CLB 37, CBZ 24, VPA 315, LEV 800 mg/kg", "data": [{"compound": "CN1C(=O)CC(=O)N(c2ccccc2)c2cc(Cl)ccc21", "note": "[CLB, Clobazam]", "values": [{"measurement": "Brain AUC (0-8 hr)", "result": 7.86, "unit": "ng·h/mg"}, {"measurement": "Brain Cmax", "result": 6.59, "unit": "ng/mg"}, {"measurement": "Brain Cmin", "result": 0.051, "unit": "ng/mg"}]}]}
